# Data published in PubChem BioAssay AID1745853 (National Center for Advancing Translational Sciences (NCATS), 2022).
# The other results are listed elsewhere or left out. The main result of the screen is listed elsewhere. These columns were measured beside it and carry no call.
# Legend:
# Test in all cases: Primary Screen for Target Class Profiling of Small Molecule Inhibitors of Methyltransferases
# [1] = molecular target: Glycine N-methyltransferase (Homo sapiens) (UniProt Q14749); conditions: purified enzyme, MTase-Glo SAH luminescence; measured here: GNMT inhibition; at 40 µM; stronger effect = lower value
# Procedure, shortened: (§1)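 Each enzyme was assayed with SAM and its substrate. SAH formation detected by MTase-Glo luminescence; single-point 40 uM screen[…].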
# [2] = molecular target: Guanidinoacetate N-methyltransferase (Homo sapiens) (UniProt Q14353); conditions: purified enzyme, MTase-Glo SAH luminescence; measured here: GAMT inhibition; at 40 µM; stronger effect = lower value
# Procedure, shortened: as §1
# [3] = molecular target: Histamine N-methyltransferase (Homo sapiens) (UniProt P50135); conditions: purified enzyme, MTase-Glo SAH luminescence; measured here: HNMT inhibition; at 40 µM; stronger effect = lower value
# Procedure, shortened: as §1
# [4] = molecular target: Nicotinamide N-methyltransferase (Homo sapiens) (UniProt P40261); conditions: purified enzyme, MTase-Glo SAH luminescence; measured here: NNMT inhibition; at 40 µM; stronger effect = lower value
# Procedure, shortened: as §1
# [5] = molecular target: Phenylethanolamine N-methyltransferase (Homo sapiens) (UniProt P11086); conditions: purified enzyme, MTase-Glo SAH luminescence; measured here: PNMT inhibition; at 40 µM; stronger effect = lower value
# Procedure, shortened: as §1
# % is scaled to controls: 0 for no effect and ±100 for the full control effect.
SMILES,"activity change, negative = inhibition [1] [%]","activity change, negative = inhibition [2] [%]","activity change, negative = inhibition [3] [%]","activity change, negative = inhibition [4] [%]","activity change, negative = inhibition [5] [%]"
Nc1nc2c(ncn2[C@@H]2O[C@H](CO)[C@@H](O)[C@@H]2O)c(=O)[nH]1,4.18,14.7,8.55,-0.044,7.77
Cc1cnc(C(=O)N2CCC3(CC2)CCC(O)(CN(C)C)CC3)cn1,-0.528,0.898,-1.43,-4.61,0.15
Cc1ccc(C)c(C(=O)Cn2nc3n(C(C)C)c(=O)c4ccc(C(=O)NCC(C)C)cc4n3c2=O)c1,4.63,1.87,5.46,1.32,-2.08
COc1ccc(NC(=O)Cn2c(=O)oc3cc(S(=O)(=O)NCc4ccccc4)ccc32)c(OC)c1,0.56,0.342,3.57,-1.24,5.02
CC(C)Cn1c(=O)c2ccc(C(=O)NC(C)C)cc2n2c(=O)n(CC(=O)c3ccc(F)cc3F)nc12,-0.986,4.64,-0.019,-2.98,0.856
O=C(c1ccc(OC(F)F)c(C#Cc2ccccn2)c1)N1Cc2cccnc2C1,-8.36,1.14,1.86,-18.1,-6.55
Cc1ccc(NC(=O)CSc2nnc3n(CC(C)C)c(=O)c4cc(F)ccc4n23)cc1,-1.92,4.58,2.94,0.333,-0.993
COc1cc(C(C)=O)c(OC)c2c1OC(C)(C)C=C2,3.8,3.93,8.28,-12.2,-0.019
COc1cc(C(=O)NC2CCN(C)CC2)c(F)cc1Nc1ncc2c(n1)N(C1CCCC1)CC(F)(F)C(=O)N2C,-26.6,-10.9,-37.1,-38.3,-32.5
COc1ccc2c3c1O[C@H]1C[C@@H](O)C=C[C@@]31CCN(C)C2,-0.941,3.17,4.19,-8.76,-2.05
COc1cc(Nc2nc3ccccc3nc2NS(=O)(=O)c2ccc(NC(=O)c3ccc(OC)c(C)c3)cc2)cc(OC)c1,-7.97,-13.8,2.8,-49.3,-18.4
CC1=CC23[C@H](C=C(C(=O)O)[C@@H]2COC(=O)[C@]3(O)CO)[C@@H]1C (stereo partly drawn),0,-1.62,-5.84,-12.6,1.19
Cc1cc(F)c(Nc2ncnc3cc(OCc4ccccc4)ccc23)cc1O,–,-23,–,-32.3,-4.71
CC1(C(=O)NC2CCCCCC2)Cn2c(ccc2-c2ccco2)C(=O)N1C1CCCCC1 (stereo not drawn),-2.41,0,1.84,-5.64,-1.92
C=C1C(OC(C)=O)CCC2(C)CC3(O)OC(=O)C(C)=C3CC12 (stereo not drawn),-2.52,-12.2,4.41,-22.7,-0.667
CC(C)Cn1c(=O)c2ccccc2n2c(=O)n(CC(=O)Nc3ccc4c(c3)OCCO4)nc12,-3.1,0.481,-1.07,2.23,-2.92
COc1cccc(CN2C(=O)c3cc4occc4n3CC2(C)C(=O)NC2CCC(C)CC2)c1OC (stereo not drawn),-8.36,4.29,-3.37,-3.34,-1.41
COc1ccc(OC)c2c1cc1n2CC(C)(C(=O)NC2CCCC2)N(Cc2ccccc2C)C1=O (stereo not drawn),-3.4,3.57,-0.32,-11.9,-3.68
COc1ccc(CN2C(=O)c3cc4occc4n3CC2(C)C(=O)NC2CCCC(C)C2C)cc1 (stereo not drawn),-0.188,0,0.121,-4.64,-2.35
Cc1ccc(Cn2c(=O)c3ccccc3n3c(SCC(=O)Nc4cc(F)ccc4F)nnc23)cc1,7.73,0,13.2,7.33,9.18

SMILES,"activity change, negative = inhibition [1] [%]","activity change, negative = inhibition [2] [%]","activity change, negative = inhibition [3] [%]","activity change, negative = inhibition [4] [%]","activity change, negative = inhibition [5] [%]"
COC(=O)c1cc2n(n1)CC(C)(C(=O)NC1CCCCCC1)N(c1ccc(Cl)cc1)C2=O (stereo not drawn),-0.588,2.57,-2.12,-2.19,-1.48
Cc1ccc(C(=O)NCc2nnc3ccc(-c4ccccc4)nn23)s1,-11.1,2.81,0.585,-5.91,-0.062
Cn1ncnc1COc1nn2c(-c3cc(F)ccc3F)nnc2cc1C(C)(C)C,-2.19,-4.75,-3.48,-16.4,-4.39
CNC(=O)c1ccc2cc(C3(O)CCn4cncc43)ccc2c1 (stereo not drawn),2.84,3.37,8.43,-9.46,-0.979
COCCN1C(=O)c2cc3occc3n2CC1(C)C(=O)NC1CCC(C)CC1 (stereo not drawn),1.74,4.05,6.12,5.32,3.03
COc1cc(/C=C/CO)cc(OC)c1O[C@@H]1O[C@H](CO[C@@H]2O[C@H](CO)[C@@H](O)[C@H](O)[C@H]2O)[C@@H](O)[C@H](O)[C@H]1O,5.18,3.99,6.28,-7.35,0.726
Cc1cccc(NC(=O)Cn2c(=O)oc3cc(S(=O)(=O)N4CCCC4)ccc32)c1C,-0.735,2.24,-1.95,-0.86,-10
CN1C(=O)C(CC(=O)N2CC(O)C2)(Cc2ccccc2)c2ccccc21 (stereo not drawn),-4.74,-0.301,-22.4,-5.15,9.71
CC(=O)N[C@H]1CCN(c2ccc(C3=NOC(CN[S+](=O)([O-])C(C)C)C3)cc2F)C1 (stereo partly drawn),0.437,2.49,5.12,-7.17,1.07
O=C(CCC1CCN(S(=O)(=O)c2ccccc2)CC1)NCc1ccco1,4.98,3.05,15.2,6.24,12
COc1ccc(N2C(=O)c3ccc(-c4ccco4)n3CC2(C)C(=O)NC2CCCC2)cc1Cl (stereo not drawn),-16.2,-1.34,-4.54,-11.8,-10.1
CN1CCN(CCN2C(=O)c3ccc(-c4ccco4)n3CC2(C)C(=O)NC2CCCCC2)CC1 (stereo not drawn),-0.678,2.27,0.926,1.65,-0.048
COc1cccc(CNC(=O)CCCn2ccc3cc(S(=O)(=O)N4CCCC4)ccc32)c1,8.89,1.44,8.84,9.91,-0.637
CCCCN1C(=O)c2cc(C(=O)Nc3cc(Cl)c(OC)cc3OC)nn2CC1(C)C(=O)NC1CCCC1 (stereo not drawn),-1.21,3.09,1.24,0.682,-0.306
CN(C)c1cc(N2CCCC(NC(=O)C3CCC3)C2)ncn1 (stereo not drawn),-2,-0.563,-0.024,-5.25,2.18
CCCn1c(=O)c2ccccc2n2c(=O)n(CC(=O)Nc3ccc(C)cc3Cl)nc12,2.94,3.37,5.54,-1.53,-0.473
COCCN1C(=O)c2cccn2CC1CNS(=O)(=O)Cc1ccccc1 (stereo not drawn),-4.92,-4.08,-0.821,-7.67,9.83
Cc1cnc(Nc2ccc(CN3CCOCC3)cc2)nc1Nc1cccc(S(=O)(=O)NC(C)(C)C)c1,-37.2,2.5,-29.2,-56.3,-13.5
CC1(C(=O)NC2CCCCCC2)Cn2c(cc3sccc32)C(=O)N1Cc1ccc2c(c1)OCO2 (stereo not drawn),2.71,4.07,5.25,-1.54,-1.76
CC(C)CC(=O)OC[C@H]1O[C@@](COC(=O)CC(C)C)(O[C@H]2O[C@H](CO)[C@@H](O)[C@H](O)[C@H]2OC(=O)CC(C)C)[C@@H](OC(=O)CC(C)C)[C@@H]1O,-1.23,7.95,8.46,-4.51,0.604

SMILES,"activity change, negative = inhibition [1] [%]","activity change, negative = inhibition [2] [%]","activity change, negative = inhibition [3] [%]","activity change, negative = inhibition [4] [%]","activity change, negative = inhibition [5] [%]"
CC1CCC(NC(=O)C2(C)Cn3c(ccc3-c3ccccc3)C(=O)N2Cc2ccc(Cl)cc2)CC1 (stereo not drawn),1.36,0.375,0.785,-2.64,1.78
Cc1ncc2c(c1CNC(=O)Cc1ccsc1)CCN(C(=O)Cc1ccc(F)c(F)c1)C2,-3.62,-4.56,-3.56,-1.74,-2.4
CC1OC2OC(=O)C3(C)CC4=C(CO)C5=C(CC(=O)C4(C)C(C1=O)C23)C(C)(C)OC(=O)C5 (stereo not drawn),-3.88,-3.69,2.46,-15.5,-9.28
CC(C)(C)CC(=O)N1CC[C@@H](CC(=O)O)[C@@H](CCN2CCN(c3ccccn3)CC2)C1,-0.629,-5.68,-2,-5.06,-2.53
CCCC(=O)N(c1ccc(OCC)cc1)S(=O)(=O)c1ccc2c(c1)n(C)c(=O)n2C,-0.311,3.84,0.381,-10.5,0.71
CN[C@H](CNC(=O)N1CCC[C@@H]([C@@H](OCCNC(=O)OC)c2cccc(Cl)c2)C1)C[C@H]1CCCOC1,5.72,11,7.51,-5.68,6.18
COc1cc2ncnc(Nc3cccc(I)c3)c2cc1OC,-85.9,-47.3,-63.5,-54.6,-62.7
Cc1noc(C)c1[S+](=O)([O-])N1CCCC1C(=O)N1CCC(N2CCCC2=O)CC1 (stereo not drawn),-0.274,3.08,1.96,1.44,-1.49
Cc1ccccc1Cn1nc2n(CC(C)C)c(=O)c3ccc(C(=O)NC4CCCCC4)cc3n2c1=O,8.99,5.82,10.9,9.28,8.75
Cc1ccc(Cn2c(=O)c3ccccc3n3c(=O)n(CC(=O)Nc4cc(F)ccc4F)nc23)cc1,3.21,5.87,0.555,0.942,4.86
NC1=NCC2c3ccccc3Cc3ccccc3N12 (stereo not drawn),2.59,7.46,-30.3,-15.9,-4.39
C=CCn1c(=O)c2ccc(C(=O)NC(C)CC)cc2n2c(=O)n(CC(=O)NC(C)C)nc12 (stereo not drawn),-1.37,3.46,-3.4,-9.72,-4.61
Cc1ccc(CCNC(=O)Cn2c(=O)oc3cc(S(=O)(=O)NCc4ccccc4)ccc32)cc1,5.11,0,2.35,-0.541,0.143
CC(C)OCCCn1c(=O)c2ccccc2n2c(=O)n(CC(=O)NCc3ccc(Cl)cc3)nc12,5.2,1.51,7.58,2.01,4.96
CC(c1ccon1)N(C)C(=O)c1csc2nc(-c3cccc(C(F)(F)F)c3)cn12 (stereo not drawn),-11.6,-9.75,-7.79,-17.6,-22.4
Cc1ccc(NS(=O)(=O)c2ccc3[nH]c(=O)[nH]c3c2)c(Cl)c1,2.81,0,2.2,-6.65,-14.1
Cc1cccc(N2CCN(C(=O)CCc3nnc4n(CCC(C)C)c(=O)c5ccccc5n34)CC2)c1C,-11.7,-1.93,-14.3,-37.7,-16
COC(=O)[C@@H]1Cc2ncn(Cc3ccc(Cl)cc3)c2CN1Cc1ccc(N(C)C)cc1,-9.62,-3.38,-1.91,-6.44,1.8
